Test [1] concerns the target T1, Flag-tagged Vangl2 (UniProt Q9ULK5).
T1 sequence: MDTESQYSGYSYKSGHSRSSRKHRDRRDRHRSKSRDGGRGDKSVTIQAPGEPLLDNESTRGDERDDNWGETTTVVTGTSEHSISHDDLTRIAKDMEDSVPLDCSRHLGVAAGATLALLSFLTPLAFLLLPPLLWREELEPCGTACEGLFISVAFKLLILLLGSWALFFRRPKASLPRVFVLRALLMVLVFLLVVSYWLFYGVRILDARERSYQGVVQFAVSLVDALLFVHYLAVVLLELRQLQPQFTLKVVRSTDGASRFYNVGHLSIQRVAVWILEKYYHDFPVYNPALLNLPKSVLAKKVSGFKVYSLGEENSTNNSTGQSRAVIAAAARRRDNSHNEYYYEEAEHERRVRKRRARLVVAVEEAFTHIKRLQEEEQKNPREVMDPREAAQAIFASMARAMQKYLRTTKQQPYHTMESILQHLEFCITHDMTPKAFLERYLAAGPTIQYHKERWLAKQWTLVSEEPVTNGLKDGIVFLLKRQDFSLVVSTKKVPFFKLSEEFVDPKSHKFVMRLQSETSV
Briefly: co-IP; HEK293T cells transfected with Flag-Vangl2 and HA-p65, separated into cytoplasm, membrane and nucleus fractions; immunoprecipitation with anti-Flag beads, immunoblot.

Sequences of proteins named here, by UniProt entry; tags and fusion partners are left off.
UniProt O60238: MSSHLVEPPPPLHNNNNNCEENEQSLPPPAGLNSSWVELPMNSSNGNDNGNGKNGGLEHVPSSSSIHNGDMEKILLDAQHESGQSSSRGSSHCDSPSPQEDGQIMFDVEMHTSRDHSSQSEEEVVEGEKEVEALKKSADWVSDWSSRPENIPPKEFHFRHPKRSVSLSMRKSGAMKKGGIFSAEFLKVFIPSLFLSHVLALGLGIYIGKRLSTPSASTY
UniProt Q04206: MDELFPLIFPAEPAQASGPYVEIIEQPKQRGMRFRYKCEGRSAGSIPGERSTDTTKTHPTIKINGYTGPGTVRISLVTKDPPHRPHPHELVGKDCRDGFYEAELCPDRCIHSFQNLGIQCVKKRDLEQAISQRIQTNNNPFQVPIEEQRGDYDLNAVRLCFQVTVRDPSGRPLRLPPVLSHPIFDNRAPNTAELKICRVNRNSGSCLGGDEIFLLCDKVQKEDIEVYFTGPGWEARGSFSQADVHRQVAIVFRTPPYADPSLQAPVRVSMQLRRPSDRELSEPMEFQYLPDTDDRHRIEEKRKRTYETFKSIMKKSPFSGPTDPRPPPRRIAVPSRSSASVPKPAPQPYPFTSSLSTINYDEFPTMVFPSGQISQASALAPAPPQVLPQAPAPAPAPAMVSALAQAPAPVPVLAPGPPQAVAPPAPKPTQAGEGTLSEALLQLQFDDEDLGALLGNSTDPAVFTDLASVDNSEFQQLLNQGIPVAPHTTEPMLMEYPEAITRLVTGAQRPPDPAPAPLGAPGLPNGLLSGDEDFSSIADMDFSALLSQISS

Test [2] has as its target T2, Flag-tagged NDP52 (nuclear dot protein 52, CALCOCO2) (UniProt Q13137).
T2 sequence: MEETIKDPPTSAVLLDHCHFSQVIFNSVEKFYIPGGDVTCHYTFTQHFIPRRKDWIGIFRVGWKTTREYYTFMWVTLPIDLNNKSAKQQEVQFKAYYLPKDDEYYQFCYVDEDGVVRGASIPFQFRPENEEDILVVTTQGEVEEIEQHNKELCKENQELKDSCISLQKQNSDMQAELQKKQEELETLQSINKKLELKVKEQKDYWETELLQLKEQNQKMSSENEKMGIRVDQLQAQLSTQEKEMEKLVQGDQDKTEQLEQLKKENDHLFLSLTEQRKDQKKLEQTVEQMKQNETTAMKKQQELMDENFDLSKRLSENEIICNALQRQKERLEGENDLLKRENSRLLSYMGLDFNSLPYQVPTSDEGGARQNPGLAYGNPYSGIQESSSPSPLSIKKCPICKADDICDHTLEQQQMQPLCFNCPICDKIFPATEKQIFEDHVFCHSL
Nature of the test: co-IP; HEK293T cells co-transfected with tagged plasmids; whole-cell lysates in low-salt lysis buffer; immunoprecipitation with anti-Flag beads, immunoblot; in some panels with or without co-expressed Myc-Vangl2, in WT, NDP52 KO or p62 KO cells, or after CQ and Baf-A1 for 8 hr.

Test [3] has as its target T1, Flag-tagged Vangl2. Described as above.
Test [4] addresses T3, Flag-tagged NBR1 (neighbor of BRCA1) (UniProt Q14596).
T3 sequence: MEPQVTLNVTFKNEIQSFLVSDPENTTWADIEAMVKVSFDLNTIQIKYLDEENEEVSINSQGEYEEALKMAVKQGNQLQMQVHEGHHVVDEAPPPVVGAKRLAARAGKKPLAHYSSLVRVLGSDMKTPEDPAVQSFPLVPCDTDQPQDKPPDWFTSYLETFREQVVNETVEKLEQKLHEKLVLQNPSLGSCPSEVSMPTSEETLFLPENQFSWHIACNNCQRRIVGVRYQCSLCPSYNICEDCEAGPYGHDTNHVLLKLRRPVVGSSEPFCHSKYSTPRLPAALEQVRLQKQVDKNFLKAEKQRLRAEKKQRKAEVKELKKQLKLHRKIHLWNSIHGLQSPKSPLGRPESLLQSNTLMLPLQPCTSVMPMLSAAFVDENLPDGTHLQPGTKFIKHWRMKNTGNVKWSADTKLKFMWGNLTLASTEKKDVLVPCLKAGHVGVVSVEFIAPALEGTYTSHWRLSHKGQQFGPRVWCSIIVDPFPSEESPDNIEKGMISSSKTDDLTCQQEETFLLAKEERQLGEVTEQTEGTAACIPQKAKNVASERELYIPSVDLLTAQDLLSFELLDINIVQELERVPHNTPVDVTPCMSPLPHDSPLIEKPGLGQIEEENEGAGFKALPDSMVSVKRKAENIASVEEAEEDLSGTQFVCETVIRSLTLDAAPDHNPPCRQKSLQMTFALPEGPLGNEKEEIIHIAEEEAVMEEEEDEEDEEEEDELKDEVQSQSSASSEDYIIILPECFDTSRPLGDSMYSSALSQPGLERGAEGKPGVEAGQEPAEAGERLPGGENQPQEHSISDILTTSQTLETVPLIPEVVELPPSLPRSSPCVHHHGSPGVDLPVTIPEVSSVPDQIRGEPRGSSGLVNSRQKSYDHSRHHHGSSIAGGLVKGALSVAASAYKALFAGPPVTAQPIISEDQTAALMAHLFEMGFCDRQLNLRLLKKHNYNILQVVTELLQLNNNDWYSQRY
The test is described as above.

For test [5], the target named is Flag-tagged p62 (sequestosome 1, SQSTM1) (UniProt Q13501). The description is as above.
In test [6] the target is Flag-tagged Nix (UniProt O60238). The description is as above.

These are yes or no findings as the source states them, for the method shown. Binding seen in cells or lysates may run through a third protein. Some results given as binding are weak or reduced against the parent protein; the word gives no strength. For part of these data: Where a sequence is shown, tags or fusion partners need not be part of it.

On to “HA-tagged p65 (from UniProt Q04206 1-551)”, for which the binding result is “binds” in test [1]; “binds” in test [2]; “binds” in test [3]; “no binding” in test [4]; “binds” in test [5]; “no binding” in test [6].

Source of the values: PMC11398866.
